Measurements reported in the supplement of paper PMC8728848.
This is one part of the list.

Tests used:
Experiment in all cases: glycan array binding signal (z-score within array); higher = stronger binding
Conditions in all cases: glycan notation: IUPAC condensed, linker removed
[1] = target: Gal(b1-3)GlcNAc(a1-6)Gal(b1-4)GlcNAc
Method in brief: (§1)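 From the Consortium for Functional Glycomics database, 3228 arrays were curated, keeping only those whose protein sequence was available. Binding is given as a within-array Z-score averaged across arrays sharing a protein sequence and across linkers. Negative Z-scores can be read as non-binding.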

[2] = target: Gal(b1-3)GlcNAc(b1-2)Man(a1-3)[Gal(b1-3)GlcNAc(b1-2)Man(a1-6)]Man(b1-4)GlcNAc(b1-4)GlcNAc
Method in brief: as §1

[3] = target: Gal(b1-3)GlcNAc(b1-2)Man(a1-3)[Gal(b1-3)GlcNAc(b1-2)Man(a1-6)]Man(b1-4)GlcNAc(b1-4)[Fuc(a1-6)]GlcNAc
Method in brief: as §1

[4] = target: Gal(b1-3)GlcNAc(b1-2)[Gal(b1-3)GlcNAc(b1-6)]Man(a1-6)[Gal(b1-3)GlcNAc(b1-2)Man(a1-3)]Man(b1-4)GlcNAc(b1-4)GlcNAc
Method in brief: as §1

[5] = target: Gal(b1-3)GlcNAc(b1-3)Gal(b1-3)GlcNAc
Method in brief: as §1

[6] = target: Gal(b1-3)GlcNAc(b1-3)Gal(b1-4)Glc
Method in brief: as §1

[7] = target: Gal(b1-3)GlcNAc(b1-3)Gal(b1-4)GlcNAc
Method in brief: as §1

[8] = target: Gal(b1-3)GlcNAc(b1-3)Gal(b1-4)GlcNAc(b1-6)[Gal(b1-3)GlcNAc(b1-3)]Gal(b1-4)Glc
Method in brief: as §1

[9] = target: Gal(b1-3)GlcNAc(b1-3)Gal(b1-4)[Fuc(a1-3)]GlcNAc(b1-6)[Gal(b1-3)GlcNAc(b1-3)]Gal(b1-4)Glc
Method in brief: as §1

[10] = target: Gal(b1-3)GlcNAc(b1-3)GalNAc
Method in brief: as §1

[11] = target: Gal(b1-3)GlcNAc(b1-6)Gal(b1-4)GlcNAc
Method in brief: as §1

[12] = target: Gal(b1-3)[Fuc(a1-4)]GlcNAc
Method in brief: as §1

[13] = target: Gal(b1-3)[Fuc(a1-4)]GlcNAc(b1-2)Man(a1-3)[Gal(b1-3)[Fuc(a1-4)]GlcNAc(b1-2)Man(a1-6)]Man(b1-4)GlcNAc(b1-4)GlcNAc
Method in brief: as §1

[14] = target: Gal(b1-3)[Fuc(a1-4)]GlcNAc(b1-2)Man(a1-3)[Gal(b1-3)[Fuc(a1-4)]GlcNAc(b1-2)Man(a1-6)]Man(b1-4)GlcNAc(b1-4)[Fuc(a1-6)]GlcNAc
Method in brief: as §1

[15] = target: Gal(b1-3)[Fuc(a1-4)]GlcNAc(b1-3)Gal(b1-3)[Fuc(a1-4)]GlcNAc
Method in brief: as §1

[16] = target: Gal(b1-3)[Fuc(a1-4)]GlcNAc(b1-3)Gal(b1-4)GlcNAc
Method in brief: as §1

[17] = target: Gal(b1-3)[Fuc(a1-4)]GlcNAc(b1-3)Gal(b1-4)[Fuc(a1-3)]GlcNAc
Method in brief: as §1

[18] = target: Gal(b1-3)[GlcNAc(b1-6)]GalNAc
Method in brief: as §1

[19] = target: Gal(b1-3)[Neu5Ac(a2-6)]GalNAc
Method in brief: as §1

[20] = target: Gal(b1-3)[Neu5Ac(a2-6)]GlcNAc(b1-6)Gal(b1-4)Glc
Method in brief: as §1

[21] = target: Gal(b1-3)[Neu5Ac(b2-6)]GalNAc
Method in brief: as §1

[22] = target: Gal(b1-4)Gal
Method in brief: as §1

[23] = target: Gal(b1-4)GalNAc(a1-3)[Fuc(a1-2)]Gal(b1-4)GlcNAc
Method in brief: as §1

[24] = target: Gal(b1-4)GalNAc(b1-3)[Fuc(a1-2)]Gal(b1-4)GlcNAc
Method in brief: as §1

[25] = target: Gal(b1-4)Glc
Method in brief: as §1

[26] = target: Gal(b1-4)Glc6S
Method in brief: as §1

[27] = target: Gal(b1-4)GlcNAc
Method in brief: as §1

[28] = target: Gal(b1-4)GlcNAc(a1-6)Gal(b1-4)GlcNAc
Method in brief: as §1

[29] = target: Gal(b1-4)GlcNAc(b1-2)Man(a1-3)Man(b1-4)GlcNAc(b1-4)GlcNAc
Method in brief: as §1

[30] = target: Gal(b1-4)GlcNAc(b1-2)Man(a1-3)[Gal(b1-4)GlcNAc(b1-2)Man(a1-6)]Man(b1-4)GlcNAc(b1-4)GlcNAc
Method in brief: as §1

[31] = target: Gal(b1-4)GlcNAc(b1-2)Man(a1-3)[Gal(b1-4)GlcNAc(b1-2)Man(a1-6)]Man(b1-4)GlcNAc(b1-4)[Fuc(a1-6)]GlcNAc
Method in brief: as §1

[32] = target: Gal(b1-4)GlcNAc(b1-2)Man(a1-3)[Gal(b1-4)GlcNAc(b1-2)][GlcNAc(b1-4)]Man(b1-4)GlcNAc(b1-4)GlcNAc
Method in brief: as §1

[33] = target: Gal(b1-4)GlcNAc(b1-2)Man(a1-3)[GlcNAc(b1-2)Man(a1-6)]Man(b1-4)GlcNAc(b1-4)GlcNAc
Method in brief: as §1

[34] = target: Gal(b1-4)GlcNAc(b1-2)Man(a1-3)[Man(a1-6)]Man(b1-4)GlcNAc(b1-4)GlcNAc
Method in brief: as §1

[35] = target: Gal(b1-4)GlcNAc(b1-2)Man(a1-6)Man(b1-4)GlcNAc(b1-4)GlcNAc
Method in brief: as §1

[36] = target: Gal(b1-4)GlcNAc(b1-2)Man(a1-6)[GlcNAc(b1-2)Man(a1-3)]Man(b1-4)GlcNAc(b1-4)GlcNAc
Method in brief: as §1

[37] = target: Gal(b1-4)GlcNAc(b1-2)Man(a1-6)[Man(a1-3)]Man(b1-4)GlcNAc(b1-4)GlcNAc
Method in brief: as §1

[38] = target: Gal(b1-4)GlcNAc(b1-2)[Gal(b1-4)GlcNAc(b1-4)]Man(a1-3)[Gal(b1-4)GlcNAc(b1-2)Man(a1-6)]Man(b1-4)GlcNAc(b1-4)GlcNAc
Method in brief: as §1

B1: SEX4 (Arabidopsis thaliana), Q944A8 (protein)
chain: TQAMGAVLTYRHELGMNYNFIRPDLIVGSCLQTPEDVDKLRKIGVKTIFCLQQDPDLEYFGVDISSIQAYAKKYSDIQHIRCEIRDFDAFDLRMRLPAVVGTLYKAVKRNGGVTYVHCTAGMGRAPAVALTYMFWVQGYKLMEAHKLLMSKRSCFPKLDAIRNATIDILTGLKRKTVTLTLKDKGFSRVEISGLDIGWGQRIPLTLGKGTGFWILKRELPEGQFEYKYIIDGEWTHNEAEPFIGPNKDGHTNNYAKVVDDPTSVDGTTRERLSSEDPELLEEERSKLIQFLETCSEAEV
- glycan array binding signal (z-score) [1]: -0.469
- glycan array binding signal (z-score) [2]: 1.27
- glycan array binding signal (z-score) [3]: 0.652
- glycan array binding signal (z-score) [4]: -0.425
- glycan array binding signal (z-score) [5]: -0.48
- glycan array binding signal (z-score) [6]: -0.527
- glycan array binding signal (z-score) [7]: -0.52
- glycan array binding signal (z-score) [8]: -0.273
- glycan array binding signal (z-score) [9]: -0.337
- glycan array binding signal (z-score) [10]: -0.374
- glycan array binding signal (z-score) [11]: -0.408
- glycan array binding signal (z-score) [12]: -0.398
- glycan array binding signal (z-score) [13]: -0.181
- glycan array binding signal (z-score) [14]: -0.406
- glycan array binding signal (z-score) [15]: -0.453
- glycan array binding signal (z-score) [16]: 0.013
- glycan array binding signal (z-score) [17]: -0.367
- glycan array binding signal (z-score) [18]: -0.444
- glycan array binding signal (z-score) [19]: -0.273
- glycan array binding signal (z-score) [20]: 0.064
- glycan array binding signal (z-score) [21]: 0.139
- glycan array binding signal (z-score) [22]: -0.4
- glycan array binding signal (z-score) [23]: -0.464
- glycan array binding signal (z-score) [24]: -0.409
- glycan array binding signal (z-score) [25]: -0.395
- glycan array binding signal (z-score) [26]: 0.104
- glycan array binding signal (z-score) [27]: -0.406
- glycan array binding signal (z-score) [28]: -0.119
- glycan array binding signal (z-score) [29]: 0.202
- glycan array binding signal (z-score) [30]: -0.197
- glycan array binding signal (z-score) [31]: 0.172
- glycan array binding signal (z-score) [32]: 0.393
- glycan array binding signal (z-score) [33]: 1.91
- glycan array binding signal (z-score) [34]: 0.063
- glycan array binding signal (z-score) [35]: 1.74
- glycan array binding signal (z-score) [36]: 0.253
- glycan array binding signal (z-score) [37]: 0.194
- glycan array binding signal (z-score) [38]: -0.206
